According to paper PMC4336329 (PLoS ONE, 2015):
Screen size: about 310,000 compounds; about 14,000 (4.5%) showed an effect of 50% or more. The effect is printed as a negative number. Some of the results follow.

The molecules below were run against human ether-à-go-go-related gene (hERG) potassium channel (human, UniProt Q12809) (assay: primary screen, population patch clamp on CHO cells stably expressing hERG).
Procedure: Briefly, Chinese hamster ovary (CHO) cells stably expressing the hERG channel were dislodged from tissue culture flasks and dispensed into PPC plates. […] During the recording, background leak currents were estimated by a 100 ms step to -80 mV from an initial holding potential of -70 mV and subtracted from the subsequent current measurement. The campaign was conducted in two phases using slight differences in recording protocol. In the first phase, the initial voltage pulse used a 100 ms step to -30 mV from a holding potential of -70 mV, a 2 s conditioning step to +25 mV, and a 2 s test step to -30 mV. During the second phase of the screen, the potential during the conditioning step was raised to +45 mV. In both phases of the campaign, a secondary voltage pulse was applied using the same parameters as the second phase initial pulse. The initial and secondary pulses were applied in the absence of compound, and upon application of 1 μM and 10 μM test concentrations. […]
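Further: peak tail current of the secondary pulse compared with the same well before compound.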

Sequence of human ether-à-go-go-related gene (hERG) potassium channel (Q12809 whole entry, looked up): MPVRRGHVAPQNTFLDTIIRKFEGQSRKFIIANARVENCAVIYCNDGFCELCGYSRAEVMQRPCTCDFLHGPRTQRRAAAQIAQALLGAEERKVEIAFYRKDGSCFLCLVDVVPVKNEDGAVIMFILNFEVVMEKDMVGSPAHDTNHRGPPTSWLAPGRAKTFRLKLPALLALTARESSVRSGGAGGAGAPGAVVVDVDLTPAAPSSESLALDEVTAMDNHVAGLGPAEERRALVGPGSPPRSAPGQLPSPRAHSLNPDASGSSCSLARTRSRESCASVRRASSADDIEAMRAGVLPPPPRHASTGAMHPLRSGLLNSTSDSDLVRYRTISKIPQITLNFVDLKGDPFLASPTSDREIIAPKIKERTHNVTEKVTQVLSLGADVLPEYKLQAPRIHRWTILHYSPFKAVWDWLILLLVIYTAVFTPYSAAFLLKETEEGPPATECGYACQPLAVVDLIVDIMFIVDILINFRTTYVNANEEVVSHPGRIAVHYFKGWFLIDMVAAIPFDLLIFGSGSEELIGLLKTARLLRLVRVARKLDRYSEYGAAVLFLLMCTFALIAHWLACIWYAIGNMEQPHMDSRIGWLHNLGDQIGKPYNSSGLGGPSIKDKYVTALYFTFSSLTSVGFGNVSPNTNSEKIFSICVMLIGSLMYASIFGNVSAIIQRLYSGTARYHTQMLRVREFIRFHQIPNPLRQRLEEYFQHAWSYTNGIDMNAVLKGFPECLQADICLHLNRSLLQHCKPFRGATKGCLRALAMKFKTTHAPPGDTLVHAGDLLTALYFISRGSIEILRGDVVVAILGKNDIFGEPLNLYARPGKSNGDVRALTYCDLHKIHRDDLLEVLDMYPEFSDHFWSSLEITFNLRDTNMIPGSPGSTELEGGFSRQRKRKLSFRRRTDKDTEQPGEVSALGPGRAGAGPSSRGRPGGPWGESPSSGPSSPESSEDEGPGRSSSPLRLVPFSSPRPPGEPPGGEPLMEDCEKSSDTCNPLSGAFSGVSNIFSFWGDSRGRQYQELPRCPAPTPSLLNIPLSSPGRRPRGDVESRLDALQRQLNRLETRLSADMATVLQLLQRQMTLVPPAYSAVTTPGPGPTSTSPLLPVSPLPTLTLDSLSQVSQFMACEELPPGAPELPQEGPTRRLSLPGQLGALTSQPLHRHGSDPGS

SMILES | hERG current change (%, negative = inhibition) at 10uM [%]
CCn1c2ccccc2c2cc(NC(=O)c3cccc([N+](=O)[O-])c3)ccc21 | 8.93
COCCN1Cc2cccc(C(=O)Nc3c(C)cc(C)cc3C)c2C1=O | -13.3
Cc1ccc(O)c(NC(=O)CSc2ccc(Cl)cc2)c1 | 19.3
COc1ccc(S(=O)(=O)N2CCCCC2)cc1NC(=O)C1CCCC1 | -8.28
CCC1COCCS(=O)(=O)N1Cc1cccc(Cl)c1 (stereo not drawn) | -19.3
CCc1c(C)nc2ncnn2c1N1CCCC(C(=O)NCCc2ccccc2)C1 (stereo not drawn) | -15.2
CCNc1nc(NCC)n2c(SCC(=O)Nc3ccccc3)nnc2n1 | 1.89
COCCNc1nc2nonc2nc1N1CCC(N(C)C)C1 (stereo not drawn) | 1.92
COc1ccccc1CNC(=O)c1cccc(S(=O)(=O)N2CCN(c3ccc(F)cc3)CC2)c1 | -4.01
C/C(=N\NC(=O)c1ccc(NS(=O)(=O)c2cccs2)cc1)c1ccc(O)cc1O | -0.956
Cc1nn(Cc2ccc(Cl)c(Cl)c2)c(C)c1NC(=O)c1sc2ccccc2c1Cl | 3.36
COc1ccc(-c2nc(NC(=O)CSCCO)sc2C)cc1 | -4.57
CC1CC(C)(C)N(C(=O)NC2CCCCC2)c2ccccc21 (stereo not drawn) | 15
COC(=O)c1[nH]c2ccc(C)cc2c1NC(=O)Oc1ccccc1 | 14.5
CCCc1nnc(SCC(=O)Nc2ccccc2F)o1 | 4.74
O=C(COc1ccc(Cl)cc1)Nc1ccc2[nH]ncc2c1 | 14.4
Cc1nc2ccccc2n1CC(=O)OCC(=O)NCCc1ccccc1 | 22.1
CC(=O)N1CCN=C1SCc1ccc(C(F)(F)F)cc1 | -10.5
CCOc1cccc(SCc2noc(C(=O)NC(C)C)c2C(=O)O)c1 | -0.245
CCOC(=O)c1c(NC(=O)C2CCCCC2)sc2c1CCN(C(C)C)C2.Cl | -81.6
Cc1ccc(OCCSc2nc3ccccc3n2CC(=O)O)cc1 | 22.4
CCOC(=O)N1CCN(C(=O)c2ccc(C)c(S(=O)(=O)N3CCCCC3)c2)CC1 | -46
CCn1cnc2sc(C(=O)O)c(C)c2c1=O | 10.9

SMILES | hERG current change (%, negative = inhibition) at 10uM [%]
COc1cc(/C=N/n2c(C)nc3ccccc3c2=O)ccc1O | 4.55
O=C(CSc1nncs1)NNC(=O)c1ccco1 | 13.2
CCOC(=O)/C(C#N)=C/C=C1\C=Cc2ccccc2N1CC | 7.18
Cc1ccc(CNC(=O)C2CC3Cn4c(nc5cc(Cl)c(Cl)cc54)C3N2C)o1 (stereo not drawn) | -58.5
CCCNC(=O)C1(CC2CC(c3ccccc3)=NO2)CCN(C(=O)c2cc(OCC)c(OCC)c(OCC)c2)CC1 (stereo not drawn) | -34.6
CCOC(=O)c1c(/N=C/C2C(=O)CC(C)(C)CC2=O)sc2c1CCCC2 | 13.1
O=C(O)c1cccc(S(=O)(=O)Nc2ccc3oc(=O)sc3c2)c1 | 10.7
CCc1ccc(C(=O)/C=C/c2ccc([N+](=O)[O-])o2)cc1 | -5.07
Cc1c(C)c2ccc(OCC(=O)NCCN3CCOCC3)cc2oc1=O | 16.2
CN(C(=O)c1c[nH]c(=O)cc1C(F)(F)F)c1ccc(Cl)cc1 | 15
CN(C)c1oc(-c2ccco2)nc1S(=O)(=O)c1ccc(Br)cc1 | -12.1
C#CCOCCOCCOCCNc1nc(N2CCN(C(=O)Cn3cc(CCC[NH+]=C(N)N)nn3)CC2)nc(N2CCN(C(=O)[C@H]([C@@H](C)CC)n3cc(CCCC[NH3+])nn3)CC2)n1.[Cl-] | 2.19
Oc1ccc(/C=N/NC2=NCCCCC2)cc1 | -16.2
COc1ccccc1CNC(=O)CN1C(=O)NC2(CCCC2)C1=O | 7.39
ClC1(Cl)CC1Cn1cnc2ccccc21 (stereo not drawn) | 27.8
O=C(/C=C/c1ccc2ccccc2n1)c1cc(Cl)ccc1O | 18
Cl.O=C(O)c1ccc(CNCc2ccc(F)cc2)cc1 | 16.4
CNC(=O)Oc1ccc2ncccc2c1 | -7.61
O=C(c1ccccc1C(=O)N1CCN(c2ccccc2)CC1)N1CCN(c2ccccc2)CC1 | -29.7
COc1cc(NC(=S)NC(=O)c2cccs2)ccc1NC(=O)C(C)C | -6.81
CCOc1ccc(CNCCNC(=O)c2nonc2N)cc1.Cl | -37.1
CCCCC(=O)Nc1ccc2c(c1)nc(CCN1CCN(C)CC1)n2C | 20
O=C(COC(=O)Cc1c(Cl)cccc1Cl)NCCC1=CCCCC1 | -12.2

SMILES | hERG current change (%, negative = inhibition) at 10uM [%]
Cn1c(N2CCCC2)nc2c1c(=O)n(Cc1ccc(Cl)cc1)c(=O)n2C | -68.6
Nc1nc(C23CC4CC(CC(Cl)(C4)C2)C3)cs1 | 5.08
Nc1nc(NC(=O)Cc2ccccc2)nn1-c1ccccc1 | 0.691
CN(C)C(=S)c1ccc2ccccc2n1 | 17.1
CCC(CO)Nc1ncnc2c1cnn2-c1ccc(OC)cc1 (stereo not drawn) | 4.38
Cc1ccc(S(=O)(=O)Nc2n[nH]nc2C(=O)NC2CCCCC2)cc1 | 15.2
O=C(O)CC/C(=N/NC(=O)c1ccc(-c2ccccc2)cc1)c1ccccc1 | 2.91
O=C(/C=C/c1ccc(Cl)cc1Cl)c1ccc[nH]1 | 6.08
O=S(=O)(NCc1ccccc1)c1cccc(S(=O)(=O)N2CCOCC2)c1 | -35.8
O=C(COC(=O)c1ccc[nH]c1=O)NC1CCCCCC1 | 46.2
Cc1cccc(N2CCN(C(=O)CSc3nnnn3C3CC3)CC2)c1C | -25.2
Cc1cccc(-c2nsc(SCC(=O)c3ccc(Cl)cc3)n2)c1 | 23.3
Cc1ccc(OCC(=O)NCC(=O)Nc2ccc(F)c(F)c2F)c([N+](=O)[O-])n1 | -34.4
O=c1nc(-c2ccccc2)c(-c2ccccc2)n[nH]1 | 20
Cn1c2ccccc2c2ncn(CCN3CCOCC3)c(=O)c21 | -4.89
COc1ccc([C@H]2CC(=O)C=C(c3ccc(SC)cc3)C2)cc1OC | 25.4
COc1ccc(Cn2c(N)c(C#N)c3nc4ccccc4nc32)cc1 | 11.2
COc1ccccc1NS(=O)(=O)c1cccc(C(=O)NCC(c2ccccc2OC)N2CCCC2)c1 (stereo not drawn) | -12.9
O=C(Nc1ccc2c(c1)OCO2)OCc1ccccc1 | -26.2
Cc1ccccc1-c1noc(CCC(=O)NCCc2ccccc2)n1 | 10.4
CC1CCN(c2ccccc2NC(=O)c2cc3ccccc3o2)CC1 | 25
COc1ccc(Cl)cc1S(=O)(=O)NC(C)C(=O)NCc1ccncc1 (stereo not drawn) | 10.3
CCn1c(=O)ccc2cc([N+](=O)[O-])ccc21 | 12.5

SMILES | hERG current change (%, negative = inhibition) at 10uM [%]
O=C(c1ccc(Cl)c([N+](=O)[O-])c1)N(Cc1ccc(Cl)cc1)C1CCS(=O)(=O)C1 (stereo not drawn) | -31.4
O=C(c1cccs1)N1CCN(c2cccc(Cl)c2)CC1 | -16.5
CCOc1ccc(C2C(C(=O)Nc3ccc(F)cc3)=C(C)Nc3nc(CCCO)nn32)cc1 (stereo not drawn) | -3.24
Cc1ccc(S(=O)(=O)CCc2ccncc2)cc1 | 25.4
O=C(O)CN1C(=O)C2C3CC(C2C1=O)C1C(c2ccccc2)c2sc(=O)[nH]c2SC31 (stereo not drawn) | 15
Cn1cccc1C(=O)OCC(=O)N1CC(=O)Nc2ccccc21 | 0.467
O=C(/C=C/c1c(Cl)cccc1Cl)N1CCOCC1 | 24.8
CCOc1ncccc1C(=O)NCc1ccccc1F | -8.05
C=CCc1ccc(OCC(O)CN2CCN(c3ccccc3)CC2)c(OC)c1.Cl (stereo not drawn) | -70.3
Cc1cc(C)nc(NS(=O)(=O)c2ccc(NC(=O)C3(c4ccccc4)CCCC3)cc2)n1 | -16.9
Cn1cc(S(=O)(=O)N2CCN(c3ccccc3)CC2)c(=O)n(C)c1=O | -3.38
Cc1ccc(C(=O)Oc2coc(CSc3nnc(NC(=O)c4cccs4)s3)cc2=O)cc1C | -4
CNCC(O)c1cc(F)c(OCc2ccccc2)c(OCc2ccccc2)c1F (stereo not drawn) | -10.7
Cc1ccc(CNC(=O)CCCC(=O)c2ccccc2)cc1 | -9.96
C/C(CCc1ccc2c(c1)OCO2)=N\NC(=O)c1ccc(C)cc1C | 8.03
CCOc1cc(/C=N\NC(=O)c2ccc(NC(=O)C(C)(C)C)cc2)ccc1OC(=O)c1ccc(OC)cc1 | 20.5
O=C(COC(=O)[C@H](Cc1ccccc1)N1C(=O)c2ccccc2C1=O)Nc1ccc2c(c1)OCO2 | -8.45
Cn1c(Cc2cccs2)n[nH]c1=S | 10.1
Cc1cc(NC(=O)CSc2nnc(C3CC3)n2C)no1 | 22.4
COc1ccc(Cl)cc1C(=O)Nc1ccc(S(N)(=O)=O)cc1 | -1.91
CC(=O)O[C@H]1C[C@@]2(C)[C@@H](C[C@@H](O)[C@H]3[C@@]4(C)CC[C@@H](O)[C@@H](C)C4CC[C@@]32C)/C1=C(\CCC=C(C)C)C(=O)[O-].[Na+] (stereo partly drawn) | -0.0437
